Measurements as given in the supplement of paper PMC4604168 (melanoma cell lines).
This is one part of the list. Many values rest on one well or one pass, so single values are uncertain.

Assays:
Assay in all cases: cell count relative to DMSO control; melanoma cells; higher = more viable cells
Settings in all cases: library dose: standard library concentration; 72 h
G361 = tested on: G361
IPC-298 = tested on: IPC-298
IST-MEL1 = tested on: IST-MEL1
LB2518-MEL = tested on: LB2518-MEL
LOXIMVI = tested on: LOXIMVI
MEL-HO = tested on: MEL-HO
MZ2-MEL = tested on: MZ2-MEL
MeWo = tested on: MeWo
RPMI7951 = tested on: RPMI7951
RVH-421 = tested on: RVH-421
SkMel28 = tested on: SkMel28
SkMel2 = tested on: SkMel2
SkMel30 = tested on: SkMel30
SkMel5 = tested on: SkMel5
UACC257 = tested on: UACC257
UACC62 = tested on: UACC62
WM115 = tested on: WM115
WM1716 = tested on: WM1716
WM3526 = tested on: WM3526
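Further: cells treated in 1,536-well plates, then fixed and DAPI-stained, with nuclei counted from automated high-throughput microscope images.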

SMILES	cell count (G361)	cell count (IPC-298)	cell count (IST-MEL1)	cell count (LB2518-MEL)	cell count (LOXIMVI)	cell count (MEL-HO)	cell count (MZ2-MEL)	cell count (MeWo)	cell count (RPMI7951)	cell count (RVH-421)	cell count (SkMel28)	cell count (SkMel2)	cell count (SkMel30)	cell count (SkMel5)	cell count (UACC257)	cell count (UACC62)	cell count (WM115)	cell count (WM1716)	cell count (WM3526)
CN(c1ncccc1CNc1nc(Nc2ccc3c(c2)CC(=O)N3)ncc1C(F)(F)F)S(C)(=O)=O + O=C(Oc1ccc([N+](=O)[O-])cc1)N1CCC(C(O)(c2ccc3c(c2)OCO3)c2ccc3c(c2)OCO3)CC1 [JZL184] (first compound 0.4 µM, partner dose 5 µM)	102%	102%	97.8%	94%	241%	114%	117%	112%	70.6%	83.1%	86.8%	94.3%	96.5%	74.5%	73.3%	55.3%	88.1%	77.5%	95.5%
Cn1c(=O)n(-c2ccc(C(C)(C)C#N)cc2)c2c3cc(-c4cnc5ccccc5c4)ccc3ncc21 + Cc1cc(SCc2sc(-c3ccc(C(F)(F)F)c(F)c3)nc2C)ccc1OCC(=O)O [GW0742] (first compound 0.02 µM, partner dose 10 µM)	88%	95.9%	89%	100%	117%	81.3%	96.8%	77.8%	96.6%	82.5%	79.8%	83.8%	96.8%	109%	91.6%	93.4%	77.9%	91.8%	106%
C[C@@H](Oc1cc(-c2cnn(C3CCNCC3)c2)cnc1N)c1c(Cl)ccc(F)c1Cl [Crizotinib] + C/C(O)=C(\C#N)C(=O)Nc1cc(Br)ccc1Br [LFM-A13] (first compound 1 µM, partner dose 10 µM)	108%	102%	98.5%	84%	82.5%	101%	105%	71.3%	82.4%	104%	63.9%	109%	85.4%	72%	87.3%	80.4%	60%	77.8%	96.7%
COc1ccc(C2=N[C@@H](c3ccc(Cl)cc3)[C@@H](c3ccc(Cl)cc3)N2C(=O)N2CCNC(=O)C2)c(OC(C)C)c1 [Nutlin-3] + Cc1cc(SCc2sc(-c3ccc(C(F)(F)F)c(F)c3)nc2C)ccc1OCC(=O)O [GW0742] (first compound 0.5 µM, partner dose 10 µM)	65.4%	97.2%	86.7%	59%	78.7%	93.7%	109%	77.6%	74.8%	50.3%	58.1%	81.4%	92.9%	70%	72.2%	76.3%	99.7%	68.7%	76.9%
CC(=O)O[C@@]12CO[C@@H]1C[C@H](O)[C@@]1(C)C(=O)[C@H](O)C3=C(C)[C@@H](OC(=O)[C@H](O)[C@@H](NC(=O)OC(C)(C)C)c4ccccc4)C[C@@](O)([C@@H](OC(=O)c4ccccc4)[C@H]21)C3(C)C [Docetaxel] + O=C(Oc1ccc([N+](=O)[O-])cc1)N1CCC(C(O)(c2ccc3c(c2)OCO3)c2ccc3c(c2)OCO3)CC1 [JZL184] (first compound 0.0005 µM, partner dose 5 µM)	19%	38.7%	42.3%	51%	39.3%	40.6%	44.6%	22.7%	33.2%	48.4%	13.8%	20%	35.9%	37%	59%	36.8%	38.7%	32.7%	31.3%
CC1(C)CCC(c2ccc(Cl)cc2)=C(CN2CCN(c3ccc(C(=O)NS(=O)(=O)c4ccc(N[C@H](CCN5CCOCC5)CSc5ccccc5)c(S(=O)(=O)C(F)(F)F)c4)cc3)CC2)C1 + C/C(O)=C(\C#N)C(=O)Nc1cc(Br)ccc1Br [LFM-A13] (first compound 2 µM, partner dose 10 µM)	80.5%	83.5%	68.4%	78.5%	252%	58.6%	75.2%	92%	55.7%	72.8%	84.2%	80.1%	39.8%	96.4%	24.9%	57.7%	69.6%	63.1%	67.7%
C[C@@H](Oc1cc(-c2cnn(C3CCNCC3)c2)cnc1N)c1c(Cl)ccc(F)c1Cl [Crizotinib] + O=C(Oc1ccc([N+](=O)[O-])cc1)N1CCC(C(O)(c2ccc3c(c2)OCO3)c2ccc3c(c2)OCO3)CC1 [JZL184] (first compound 1 µM, partner dose 5 µM)	105%	109%	97.7%	82%	125%	97.6%	98.7%	75.5%	75.8%	84.6%	74.8%	87%	122%	83.6%	77%	70.5%	64.1%	76.1%	87.7%
CS(=O)(=O)CCNCc1ccc(-c2ccc3ncnc(Nc4ccc(OCc5cccc(F)c5)c(Cl)c4)c3c2)o1 [lapatinib] + C/C(O)=C(\C#N)C(=O)Nc1cc(Br)ccc1Br [LFM-A13] (first compound 4 µM, partner dose 10 µM)	63.4%	80.1%	88.3%	98.9%	101%	81.2%	76%	65%	64.9%	86%	70.1%	79.4%	85.7%	64.8%	101%	59%	91.9%	80.8%	69.3%
NC1(c2ccc(-c3nc4ccn5c(=O)[nH]nc5c4cc3-c3ccccc3)cc2)CCC1 + C/C(O)=C(\C#N)C(=O)Nc1cc(Br)ccc1Br [LFM-A13] (first compound 2 µM, partner dose 10 µM)	87.1%	102%	108%	88.6%	84%	68.5%	107%	70.4%	72.4%	92.7%	69.2%	68.3%	89.8%	60.9%	106%	83.2%	67.9%	87.2%	67.5%
O=C(O)[C@@H]1[O][Sb](=[O])([O][Sb]2(=[O])[O][C@H]([C@H](O)CO)[C@H](O)[C@H](C(=O)O)[O]2)[O][C@H]([C@H](O)CO)[C@@H]1O (stereo not given in full) [stibogluconate] + Cc1cc(SCc2sc(-c3ccc(C(F)(F)F)c(F)c3)nc2C)ccc1OCC(=O)O [GW0742] (first compound 10 µM, partner dose 10 µM)	122%	106%	89.8%	145%	112%	85%	104%	96.2%	149%	140%	101%	117%	112%	99.2%	110%	102%	110%	97.9%	95%
